Experimental data published in the supplement of paper PMC8728848.
This is one part of the list.

How the values were obtained:
Assay in all cases: glycan array binding signal (z-score within array); higher = stronger binding
Conditions in all cases: glycan notation: IUPAC condensed, linker removed
[1] = biological target: Fuc(a1-2)[Gal(a1-3)]Gal(b1-4)GlcNAc(b1-2)Man(a1-3)[Fuc(a1-2)[Gal(a1-3)]Gal(b1-4)GlcNAc(b1-2)Man(a1-6)]Man(b1-4)GlcNAc(b1-4)[Fuc(a1-6)]GlcNAc
In short: (§1)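 The Consortium for Functional Glycomics database supplied 3228 glycan arrays, of which those lacking an available protein sequence were dropped. The binding signal, a within-array Z-score, was averaged across arrays of the same protein sequence and across linkers. Negative scores can be read as non-binding.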

[2] = biological target: Fuc(a1-2)[Gal(a1-3)]Gal(b1-4)GlcNAc(b1-3)GalNAc
In short: as §1

[3] = biological target: Fuc(a1-2)[Gal(a1-3)]Gal(b1-4)GlcNAc(b1-3)[Fuc(a1-2)[Gal(a1-3)]Gal(b1-4)GlcNAc(b1-6)]GalNAc
In short: as §1

[4] = biological target: Fuc(a1-2)[Gal(a1-3)]Gal(b1-4)GlcNAc(b1-6)GalNAc
In short: as §1

[5] = biological target: Fuc(a1-2)[Gal(a1-3)]Gal(b1-4)[Fuc(a1-3)]Glc
In short: as §1

[6] = biological target: Fuc(a1-2)[Gal(a1-3)]Gal(b1-4)[Fuc(a1-3)]GlcNAc
In short: as §1

[7] = biological target: Fuc(a1-2)[Gal(a1-3)]Gal(b1-4)[Fuc(a1-3)]GlcNAc(b1-3)GalNAc
In short: as §1

[8] = biological target: Fuc(a1-2)[Gal(a1-4)]Gal(b1-4)GlcNAc
In short: as §1

[9] = biological target: Fuc(a1-2)[GalNAc(a1-3)]Gal
In short: as §1

[10] = biological target: Fuc(a1-2)[GalNAc(a1-3)]Gal(b1-3)GalNAc(a1-3)[Fuc(a1-2)]Gal(b1-4)GlcNAc
In short: as §1

[11] = biological target: Fuc(a1-2)[GalNAc(a1-3)]Gal(b1-3)GalNAc(b1-3)Gal(a1-4)Gal(b1-4)Glc
In short: as §1

[12] = biological target: Fuc(a1-2)[GalNAc(a1-3)]Gal(b1-3)GlcNAc
In short: as §1

[13] = biological target: Fuc(a1-2)[GalNAc(a1-3)]Gal(b1-3)GlcNAc(b1-2)Man(a1-3)[Fuc(a1-2)[GalNAc(a1-3)]Gal(b1-3)GlcNAc(b1-2)Man(a1-6)]Man(b1-4)GlcNAc(b1-4)GlcNAc
In short: as §1

[14] = biological target: Fuc(a1-2)[GalNAc(a1-3)]Gal(b1-3)GlcNAc(b1-2)Man(a1-3)[Fuc(a1-2)[GalNAc(a1-3)]Gal(b1-3)GlcNAc(b1-2)Man(a1-6)]Man(b1-4)GlcNAc(b1-4)[Fuc(a1-6)]GlcNAc
In short: as §1

[15] = biological target: Fuc(a1-2)[GalNAc(a1-3)]Gal(b1-3)GlcNAc(b1-3)GalNAc
In short: as §1

[16] = biological target: Fuc(a1-2)[GalNAc(a1-3)]Gal(b1-3)GlcNAc(b1-6)GalNAc
In short: as §1

[17] = biological target: Fuc(a1-2)[GalNAc(a1-3)]Gal(b1-4)Glc
In short: as §1

[18] = biological target: Fuc(a1-2)[GalNAc(a1-3)]Gal(b1-4)GlcNAc
In short: as §1

[19] = biological target: Fuc(a1-2)[GalNAc(a1-3)]Gal(b1-4)GlcNAc(b1-2)Man
In short: as §1

[20] = biological target: Fuc(a1-2)[GalNAc(a1-3)]Gal(b1-4)GlcNAc(b1-2)Man(a1-3)[Fuc(a1-2)[GalNAc(a1-3)]Gal(b1-4)GlcNAc(b1-2)Man(a1-6)]Man(b1-4)GlcNAc(b1-4)GlcNAc
In short: as §1

[21] = biological target: Fuc(a1-2)[GalNAc(a1-3)]Gal(b1-4)GlcNAc(b1-2)Man(a1-3)[Fuc(a1-2)[GalNAc(a1-3)]Gal(b1-4)GlcNAc(b1-2)Man(a1-6)]Man(b1-4)GlcNAc(b1-4)[Fuc(a1-6)]GlcNAc
In short: as §1

[22] = biological target: Fuc(a1-2)[GalNAc(a1-3)]Gal(b1-4)GlcNAc(b1-3)Gal(b1-4)GlcNAc
In short: as §1

[23] = biological target: Fuc(a1-2)[GalNAc(a1-3)]Gal(b1-4)GlcNAc(b1-3)Gal(b1-4)GlcNAc(b1-3)Gal(b1-4)GlcNAc
In short: as §1

[24] = biological target: Fuc(a1-2)[GalNAc(a1-3)]Gal(b1-4)GlcNAc(b1-3)GalNAc
In short: as §1

[25] = biological target: Fuc(a1-2)[GalNAc(a1-3)]Gal(b1-4)GlcNAc(b1-3)[Fuc(a1-2)[GalNAc(a1-3)]Gal(b1-4)GlcNAc(b1-6)]GalNAc
In short: as §1

[26] = biological target: Fuc(a1-2)[GalNAc(a1-3)]Gal(b1-4)GlcNAc(b1-6)GalNAc
In short: as §1

[27] = biological target: Fuc(a1-2)[GalNAc(a1-3)]Gal(b1-4)[Fuc(a1-3)]GlcNAc
In short: as §1

[28] = biological target: Fuc(a1-2)[GalNAc(a1-3)]Gal(b1-4)[Fuc(a1-3)]GlcNAc(b1-3)GalNAc
In short: as §1

[29] = biological target: Fuc(a1-2)[GalNAc(a1-4)]Gal(b1-4)GlcNAc
In short: as §1

[30] = biological target: Fuc(a1-2)[GalNAc(b1-3)]Gal
In short: as §1

Fuc(a1-3)GlcNAc = biological target: Fuc(a1-3)GlcNAc
In short: as §1

[31] = biological target: Fuc(a1-3)[Gal(b1-4)]Glc6S
In short: as §1

[32] = biological target: Fuc(a1-3)[Gal(b1-4)]GlcNAc
In short: as §1

[33] = biological target: Fuc(a1-3)[Gal(b1-4)]GlcNAc(b1-2)Man
In short: as §1

[34] = biological target: Fuc(a1-3)[Gal(b1-4)]GlcNAc(b1-2)Man(a1-3)[Fuc(a1-3)[Gal(b1-4)]GlcNAc(b1-2)Man(a1-6)]Man(b1-4)GlcNAc(b1-4)GlcNAc
In short: as §1

[35] = biological target: Fuc(a1-3)[Gal(b1-4)]GlcNAc(b1-2)Man(a1-3)[Fuc(a1-3)[Gal(b1-4)]GlcNAc(b1-2)Man(a1-6)]Man(b1-4)GlcNAc(b1-4)[Fuc(a1-6)]GlcNAc
In short: as §1

[36] = biological target: Fuc(a1-3)[Gal(b1-4)]GlcNAc(b1-3)Gal(b1-3)[Fuc(a1-4)]GlcNAc
In short: as §1

[37] = biological target: Fuc(a1-3)[Gal(b1-4)]GlcNAc(b1-3)Gal(b1-4)[Fuc(a1-3)]GlcNAc
In short: as §1

[38] = biological target: Fuc(a1-3)[Gal(b1-4)]GlcNAc(b1-3)Gal(b1-4)[Fuc(a1-3)]GlcNAc(b1-3)Gal(b1-4)[Fuc(a1-3)]GlcNAc
In short: as §1

[39] = biological target: Fuc(a1-3)[Gal(b1-4)]GlcNAc(b1-3)GalNAc
In short: as §1

[40] = biological target: Fuc(a1-3)[Gal(b1-4)]GlcNAc(b1-6)GalNAc
In short: as §1

[41] = biological target: Fuc(a1-3)[Gal(b1-4)]GlcNAc(b1-6)[Gal(b1-3)GlcNAc(b1-3)]Gal(b1-4)Glc
In short: as §1

[42] = biological target: Fuc(a1-3)[Gal(b1-4)]GlcNAc6S
In short: as §1

[43] = biological target: Fuc(a1-3)[Gal3S(b1-4)]Glc
In short: as §1

[44] = biological target: Fuc(a1-3)[Gal3S(b1-4)]GlcNAc
In short: as §1

[45] = biological target: Fuc(a1-3)[Gal3S(b1-4)]GlcNAc6S
In short: as §1

[46] = biological target: Fuc(a1-3)[GalNAc(b1-4)]GlcNAc
In short: as §1

[47] = biological target: Fuc(a1-3)[GalNAc(b1-4)]GlcNAc6S
In short: as §1

Fuc(a1-4)GlcNAc = biological target: Fuc(a1-4)GlcNAc
In short: as §1

Fuc(b1-3)GlcNAc = biological target: Fuc(b1-3)GlcNAc
In short: as §1

Gal(a1-2)Gal = biological target: Gal(a1-2)Gal
In short: as §1

Gal(a1-3)Gal = biological target: Gal(a1-3)Gal
In short: as §1

Gal(a1-3)Gal(b1-3)GlcNAc = biological target: Gal(a1-3)Gal(b1-3)GlcNAc
In short: as §1

[48] = biological target: Gal(a1-3)Gal(b1-3)GlcNAc(b1-2)Man
In short: as §1

[49] = biological target: Gal(a1-3)Gal(b1-3)GlcNAc(b1-2)Man(a1-3)[Gal(a1-3)Gal(b1-3)GlcNAc(b1-2)Man(a1-6)]Man(b1-4)GlcNAc(b1-4)GlcNAc
In short: as §1

[50] = biological target: Gal(a1-3)Gal(b1-3)GlcNAc(b1-3)GalNAc
In short: as §1

[51] = biological target: Gal(a1-3)Gal(b1-3)GlcNAc(b1-6)GalNAc
In short: as §1

[52] = biological target: Gal(a1-3)Gal(b1-3)[Fuc(a1-4)]GlcNAc(b1-2)Man(a1-3)[Gal(a1-3)Gal(b1-3)[Fuc(a1-4)]GlcNAc(b1-2)Man(a1-6)]Man(b1-4)GlcNAc(b1-4)GlcNAc
In short: as §1

Gal(a1-3)Gal(b1-4)Glc = biological target: Gal(a1-3)Gal(b1-4)Glc
In short: as §1

Gal(a1-3)Gal(b1-4)GlcNAc = biological target: Gal(a1-3)Gal(b1-4)GlcNAc
In short: as §1

B1: PNGase F (Flavobacterium meningosepticum) (protein)
chain: GIPAPADNTVNIKTFDKVKNAFGDGLSQSAEGTFTFPADVTAVKTIKMFIKNECPNKTCDEWDRYANVYVKNKTTGEWYEIGRFITPYWVGTEKLPRGLEIDVTDFKSLLSGNTELKIYTETWLAKGREYSVDFDIVYGTPDYKYSAVVPVVQYNKSSIDGVPYGKAHTLALKKNIQLPTNTEKAYLRTTISGWGHAKPYDAGSRGCAEWCFRTHTIAINNSNTFQHQLGALGCSANPINNQSPGNWTPDRAGWCPGMAVPTRIDVLNNSLIGSTFSYEYKFQNWTNNGTNGDAFYAISSFVIAKSNTPISAPVVTNLDPHHHHHH
glycan array binding signal (z-score) [1]: -0.229
glycan array binding signal (z-score) [2]: -0.226
glycan array binding signal (z-score) [3]: 1.46
glycan array binding signal (z-score) [4]: 0.476
glycan array binding signal (z-score) [5]: -0.16
glycan array binding signal (z-score) [6]: -0.164
glycan array binding signal (z-score) [7]: -0.211
glycan array binding signal (z-score) [8]: -0.115
glycan array binding signal (z-score) [9]: -0.284
glycan array binding signal (z-score) [10]: -0.27
glycan array binding signal (z-score) [11]: -0.157
glycan array binding signal (z-score) [12]: -0.123
glycan array binding signal (z-score) [13]: -0.265
glycan array binding signal (z-score) [14]: -0.189
glycan array binding signal (z-score) [15]: -0.065
glycan array binding signal (z-score) [16]: -0.178
glycan array binding signal (z-score) [17]: -0.284
glycan array binding signal (z-score) [18]: -0.261
glycan array binding signal (z-score) [19]: -0.182
glycan array binding signal (z-score) [20]: -0.463
glycan array binding signal (z-score) [21]: -0.118
glycan array binding signal (z-score) [22]: -0.363
glycan array binding signal (z-score) [23]: -0.262
glycan array binding signal (z-score) [24]: -0.167
glycan array binding signal (z-score) [25]: -0.258
glycan array binding signal (z-score) [26]: -0.348
glycan array binding signal (z-score) [27]: -0.141
glycan array binding signal (z-score) [28]: -0.212
glycan array binding signal (z-score) [29]: -0.274
glycan array binding signal (z-score) [30]: -0.254
glycan array binding signal (z-score) (Fuc(a1-3)GlcNAc): 0.009
glycan array binding signal (z-score) [31]: 0.669
glycan array binding signal (z-score) [32]: 0.02
glycan array binding signal (z-score) [33]: 0.163
glycan array binding signal (z-score) [34]: -0.072
glycan array binding signal (z-score) [35]: -0.2
glycan array binding signal (z-score) [36]: 0.434
glycan array binding signal (z-score) [37]: 0.008
glycan array binding signal (z-score) [38]: -0.298
glycan array binding signal (z-score) [39]: -0.16
glycan array binding signal (z-score) [40]: -0.166
glycan array binding signal (z-score) [41]: -0.308
glycan array binding signal (z-score) [42]: 0.583
glycan array binding signal (z-score) [43]: 0.12
glycan array binding signal (z-score) [44]: 0.04
glycan array binding signal (z-score) [45]: -0.123
glycan array binding signal (z-score) [46]: 0.369
glycan array binding signal (z-score) [47]: -0.207
glycan array binding signal (z-score) (Fuc(a1-4)GlcNAc): 2.72
glycan array binding signal (z-score) (Fuc(b1-3)GlcNAc): 0.462
glycan array binding signal (z-score) (Gal(a1-2)Gal): 0.486
glycan array binding signal (z-score) (Gal(a1-3)Gal): 0.537
glycan array binding signal (z-score) (Gal(a1-3)Gal(b1-3)GlcNAc): -0.208
glycan array binding signal (z-score) [48]: -0.138
glycan array binding signal (z-score) [49]: 0.192
glycan array binding signal (z-score) [50]: 0.102
glycan array binding signal (z-score) [51]: -0.276
glycan array binding signal (z-score) [52]: 0.401
glycan array binding signal (z-score) (Gal(a1-3)Gal(b1-4)Glc): 0.116
glycan array binding signal (z-score) (Gal(a1-3)Gal(b1-4)GlcNAc): -0.277
